The record followed here is the supplement of paper PMC10126150.

Values marked as one replicate rest on one cluster of the flow cell; about a third of the high ones do not repeat.

In the data set the test system is ATP. Kind of data set: switch fluorescence ratio, 500 uM ATP over buffer (Cy3 cluster intensity, sum of 5 cycles each) (fold (ratio)); higher = stronger signal-on switching upon ATP binding; sequences stand for … in TCGTCGGCAGCGTCAGATGTGTATAAGAGACAGTTTTTTTTTTTTTTTTTTTTTTTTT…TC. Conditions: aptamer strand: ATP DNA aptamer (quencher-CACCTGGGGGAGTATTGCGGAGGAAGG + anchor), 100 nM annealed; ATP concentration: 500 uM; one replicate. In short, it runs like this: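 Exposure to 500 uM ATP lasted 15 min at 22 °C before imaging, and a selection-buffer image was taken beforehand, for Cy3-labelled switching-strand clusters on a modified Illumina MiSeq flow-cell annealed to 100 nM quencher-labelled ATP aptamer. Five buffer/ATP cycles were run with NaOH stripping and re-annealing between them. The fluorescence ratio per cluster is summed target-cycle over summed buffer-cycle Cy3 intensity, averaged per switch-domain sequence. Clusters outside 100-1000 RFU were excluded.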

For the sequence TGAGACACGA, the switch fluorescence ratio is 0.964.
Take ACACCGTAAC: the switch fluorescence ratio amounted to 1.21.
On to AAGACGTCAT, for which the switch fluorescence ratio was 1.03.
Regarding GGGGGACAAG, the switch fluorescence ratio is 1.02.
The same measure for TTGGGCCGTG: 1.01.
As for AGTAGCCTAG, the switch fluorescence ratio was 1.01.
TACTATCCTT: the switch fluorescence ratio came to 1.01.
As to GCTTTCAAGC, the switch fluorescence ratio was determined as 1.03.
With TGAGTTAAGA, the switch fluorescence ratio was found to be 0.99.
As to AGTCTCAATA, the switch fluorescence ratio turned out to be 1.01.
GTTTGAGGAA: the switch fluorescence ratio came to 0.973.
The same measure for ACCGGGACGC: 1.14; for TACATCTATG: 1.01; for TGTAGTGGCT: 0.999.
With TGACATACTC, the switch fluorescence ratio is 1.48.
As for GTAATGTCGA, the switch fluorescence ratio came out at 0.978.
As to CCCTGGTTGG, the switch fluorescence ratio amounted to 1.05.
For CTGTATGCTC, the switch fluorescence ratio was found to be 1.05.
As to ATATTCATGG, the switch fluorescence ratio was 0.99.
For the sequence GCGCTGTCCC, the switch fluorescence ratio stood at 1.13.
Consider GCAAAACGTT, for which the switch fluorescence ratio worked out at 1.63.
Take GCGGTGCCGG: the switch fluorescence ratio is 1.02.
The same measure for CCGAGATGGG: 1.05.
As for TTGACTGTAC, the figure is 1.65; as for ACAGCGCTGA, 0.992.
CCTGTAGGCA: the switch fluorescence ratio is 1.03.
With GAAGGCGCTA, the switch fluorescence ratio is 0.99.
On to TGATTGAGAT, for which the switch fluorescence ratio was 0.952.
For the sequence CTGTGTTGTC, the switch fluorescence ratio stood at 1.02.
In the case of ATGCGGTGAC, the switch fluorescence ratio worked out at 0.993.
Consider TTACGGGAGG, for which the switch fluorescence ratio was determined as 1.07.
In the case of GGATGCTCCC, the switch fluorescence ratio is 1.21.
As for CAAGATTACG, the switch fluorescence ratio is 1.1.
With TAAATATCT, the switch fluorescence ratio came out at 1.02.
For CGACCCCCT, the switch fluorescence ratio is 1.67.
With AACCAGTTGG, the switch fluorescence ratio stood at 0.976.
Turning to TATGCCCTTG, the switch fluorescence ratio is 1.06.
For the sequence AAACCGAGTT, the switch fluorescence ratio came to 1.03.
On to CAGGTCAAGC, for which the switch fluorescence ratio came to 1.02.
In the case of GATCTCGTTG, the switch fluorescence ratio was found to be 0.975.
The same measure for TATTAAGCAC: 1.27; for GTCAGCGCGC: 1.04; for TTCGGTCAGT: 0.988.
Consider GCCGACGGA, for which the switch fluorescence ratio was 1.04.
Turning to CCATTGTCAC, the switch fluorescence ratio was 1.05.
Consider AACATGTACG, for which the switch fluorescence ratio stood at 1.15.
For GCCCGAGTCC, the switch fluorescence ratio stood at 1.06.
As for AATTAACAAA, the figure is 1.01; as for TACACAGCCG, 0.987; as for GAGTGTATCG, 1.22.
The same measure for GCTACTTAG: 1.05; for GCGTCTAGGG: 1.
Regarding AAGACTCGTT, the switch fluorescence ratio worked out at 1.01.
Turning to GAAGTTATCC, the switch fluorescence ratio came out at 1.06.
For the sequence AATACTAGAA, the switch fluorescence ratio was 1.01.
As to TAGCCGGTGC, the switch fluorescence ratio came out at 1.07.
As for AGATCGTCTT, the figure is 0.973.
With ATTAATAAAA, the switch fluorescence ratio stood at 0.824.
Consider GATTTACCCT, for which the switch fluorescence ratio was found to be 1.21.
Regarding GCAGAAGTA, the switch fluorescence ratio came out at 1.01.
On to GATTAGTCGA, for which the switch fluorescence ratio stood at 1.
Take TCGGCTGATG: the switch fluorescence ratio was determined as 1.
On to TGTTTCTTGT, for which the switch fluorescence ratio came to 1.01.
As for CGTTCAGGTT, the figure is 1.05; as for TATGTTGCTT, 0.943; as for ACGGACTGCG, 1.04.
The same measure for ACTTTGATCC: 1.03.
